Drawing on PubChem BioAssay AID1346428 (National Center for Advancing Translational Sciences (NCATS), 2018), this text covers activation for 54 molecules.

Where “and” joins values, the source holds several entries; their conditions need not be identical. Equal entries are not always repeated. Among all 48,000 compounds or so, about 1,200 (2.5%) were called active. Not shown: some 2% with an inconclusive outcome.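 The calls were made as follows: active = activation of at least 60% and not above a set upper limit (about 1 call in 100 departs from these limits); inconclusive = activation of 40% to 60%, or above that upper limit; inactive = activation under 40%.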 The list shows a part of the results.

The target of this experiment is Probable G-protein coupled receptor 32 (Homo sapiens) (UniProt O75388). The experiment can be described thus: qHTS for Agonists of Human Resolvin D1 Receptor DRV1. Also: 0% is about no effect. The following applies: CHO-K1 GPR32 beta-arrestin PathHunter luminescence, 90 min; at 76.9 µM; hits give high values; zero percent set by DMSO-only wells. The method in brief: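 Luminescent readout of beta-Gal complementation quantifies ligand-induced beta-arrestin association with GPR32 in CHO-K1 cells; 90 min compound incubation at 37 °C, detection 1 h at room temperature.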
Chain of UniProt O75388 (O75388 whole entry, looked up): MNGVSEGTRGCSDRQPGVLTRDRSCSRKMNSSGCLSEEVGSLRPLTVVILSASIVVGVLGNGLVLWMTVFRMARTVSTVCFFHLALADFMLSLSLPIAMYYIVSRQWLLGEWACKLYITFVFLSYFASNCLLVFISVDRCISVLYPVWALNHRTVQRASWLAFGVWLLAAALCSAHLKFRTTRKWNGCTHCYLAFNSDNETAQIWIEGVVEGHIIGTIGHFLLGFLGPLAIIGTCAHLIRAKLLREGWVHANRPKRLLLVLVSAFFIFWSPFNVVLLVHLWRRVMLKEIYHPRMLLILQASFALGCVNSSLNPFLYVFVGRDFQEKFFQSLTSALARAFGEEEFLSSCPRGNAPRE
Take `COc1cccc(NC(=O)CN(C)S(=O)(=O)c2cccs2)c1`: the activation was inactive: -1.54%. Turning to `CCOc1cc(C#N)c(NC(=O)c2cccc(S(=O)(=O)N3CCOCC3)c2)cc1OCC`, the activation is inactive: 7.24%. Turning to `O=C(CCNS(=O)(=O)c1ccc2c(c1)CCCC(=O)N2)NCc1ccccc1Cl`, the activation was inactive: 4.33%.

For `CCC(=O)N1CCc2cc(CNC(=O)Nc3ccccc3Cl)ccc21`, the activation is inactive: -0.588%.

For `CCC1CCCCN1CCCNC(=O)c1ccc2c(c1)N(Cc1ccccc1F)C(=O)c1ccccc1S2(=O)=O` (centres undefined), the activation is inactive: -2.64%. Take `CC1CCN(C(=O)CSc2nc(-c3ccc(C(C)C)cc3)no2)CC1`: the activation was inactive: -9.34%.

In the case of `CC(C(=O)NCc1ccccc1)N1Cc2ccccc2C1=O` (centres undefined), the activation was inactive: -16.3%. Consider `O=C(Nc1ccc([N+](=O)[O-])cc1)Nc1ccc([N+](=O)[O-])cc1`, for which the activation is inactive: -0.583%. With `COc1ccc(CCNC(=O)c2cc(C)nc3c2c(C)nn3-c2ccccc2)cc1OC`, the activation is inactive: -4.96%. In the case of `CCc1ccc(NC(=O)c2cc(S(=O)(=O)N3CCCC3)ccc2F)cc1` it was inactive: 2.44%. With `Cc1ccc(C(=O)Nc2ccc3c(c2)N(C)C(=O)c2ccccc2S3)cc1`, the activation was inactive: -2.92%. Regarding `CCCS(=O)(=O)N1CC(=O)N(c2ccccc2F)C(C)(C(=O)NC2CCCCCC2)C1` (centres undefined), the activation was inactive: -8.58%. As for `CCN1CCSc2ccc(C(=O)NCc3cccc(F)c3)cc21`, the activation is inactive: -14.5%.

Consider `O=C(Cn1c(=O)n(-c2ccc(Cl)cc2)c(=O)c2c3c(sc21)CCC3)c1ccc(F)cc1`, for which the activation was inactive: 10.4%. For `CCCCc1nn2c(=O)cc(COC(=O)c3ccc(NC(=O)c4cccs4)cc3)nc2s1`, the activation is inactive: -18.3%. For the molecule `Fc1ccc(Nc2nc3nonc3nc2Nc2cccc(C(F)(F)F)c2)cc1`, the activation is inactive: -10.1%. With `Cn1c(CNC(=O)CSc2n[nH]c(-c3ccccc3)n2)nc2ccccc21`, the activation was inactive: -6.84%. With `CC(C)(C)C1CCc2c(sc(NC(=O)Cn3nnc(-c4cccc(C(F)(F)F)c4)n3)c2C#N)C1` (centres undefined), the activation was inactive: 20.6%.

Consider `CCCCCOC(=O)CSc1nc2sc3c(c2c(=O)n1Cc1ccccc1)CC(C)(C)OC3`, for which the activation is inactive: -14.1%. Turning to `Cc1csc2nc(COc3ccc(NC(=O)COc4ccccc4F)cc3)cc(=O)n12`, the activation is inactive: 18.3%. On to `COc1ccccc1N1CCN(C(=O)CSc2nc3ccccc3nc2Cc2ccc(F)cc2)CC1`, for which the activation is inactive: -4.31%.

In the case of `COc1ccccc1Cn1c(CNS(=O)(=O)c2ccc3c(c2)CCCC3)nc2cccnc21`, the activation is inactive: -16.5%.

As to `Cc1cccc(Nc2nc(-c3ccccc3)c3cc(C)ccc3n2)c1`, the activation is inactive: -33.4%. Consider `O=C(CSc1nc(-c2ccccc2)[nH]c1-c1ccccc1)Nc1ccc2c(c1)OCO2`, for which the activation is inactive: -6.83%. For `Cc1nc2sccn2c(=O)c1S(=O)(=O)Nc1ccc(N2CCN(S(C)(=O)=O)CC2)cc1`, the activation was inactive: 29.9%. As to `CCC(=O)N1c2ccccc2CC1C(=O)NCCN1CCN(c2cccc(C)c2C)CC1` (centres undefined), the activation was inactive: 2.09%. In the case of `Cc1ccc(-c2nc3ccccc3o2)cc1NC(=O)c1cccc2c(Cl)cccc12` it was inactive: -4.22%. Take `NCCCC(N)(C(=O)O)C(F)F` (centres undefined): the activation was inactive: -53.6% and inactive: -0.916%.

Take `CC(C)OCCCn1c(SCC(=O)Nc2ccc(F)cc2)nc2c(sc3ccccc32)c1=O`: the activation is inactive: -3.69%. `Cc1ccc(NC(=O)CSc2nnc3[nH]c(=O)cc(C)n23)cc1Cl`: the activation was inactive: 14.5%. In the case of `Cc1sc2c(c1C)c(=O)n(-c1ccccc1)c(=O)n2CC(=O)c1ccc(Cl)cc1` it was inactive: -6.67%; in that of `COc1cccc(CNC(=O)CCc2nnc3n(CC(C)C)c(=O)c4ccccc4n23)c1`, inactive: 2.9%.

For `CC(C)CC(=O)N1CC(=O)Nc2ccc(F)cc2C1c1ccccc1` (centres undefined), the activation is inactive: -7.71%. As to `CCC(Sc1nc2c(sc3ccccc32)c(=O)n1CCCC(=O)NC1CCCC1)C(=O)Nc1cccc(OC)c1` (centres undefined), the activation is inactive: -15.2%. Turning to `O=[N+]([O-])c1cc(-c2nc(-c3ccccc3)no2)ccc1N1CCCC1`, the activation is inactive: 2.81%. Turning to `Cc1ccccc1NCc1cccn1-c1nnc(N2CCOCC2)s1`, the activation is inactive: 15.5%. Regarding `Cc1ccc(C2=NN(CCC(=O)NCCc3cccc(C)c3)C(=O)CC2)cc1`, the activation was inactive: -24.3%.

As to `COc1ccc(Cn2c(NCC(C)C)nc3c2c(=O)n(C)c(=O)n3C)cc1`, the activation is inactive: -4.27%. Take `O=C(CSc1oc(-c2cccs2)nc1S(=O)(=O)c1ccccc1)Nc1ccc(F)cc1`: the activation is inactive: -19.6%.

As for `CN(C(=O)CSc1nc2ccc(NC(=O)c3ccccc3)cc2s1)c1ccccc1`, the activation was inactive: 9.51%. Take `CCOc1ccccc1/C=C/c1onc(C)c1S(=O)(=O)N1CCC(C(=O)N2CCCCC2)CC1`: the activation was inactive: -4.61%. As for `COc1ccc(OC)c(CNC(=O)c2cnc(N(C)C)nc2)c1`, the activation was inactive: 3.46%. Regarding `CCOC(=O)CSc1nc(-c2ccc(OC)cc2)cc(C(F)(F)F)c1C#N`, the activation was inactive: -3.57%. For the molecule `Cc1ccc(-n2nc(C)c3c(C(=O)Nc4ccc(C)cc4Cl)cc(C)nc32)cc1`, the activation was inactive: -2.26%. On to `COc1cc(CN(C(=O)c2ccc(C)cc2)c2ccccn2)cc(OC)c1OC`, for which the activation is inactive: 18.2%. With `COc1ccc(C(=O)CC2(O)C(=O)N(CCc3ccccc3)c3ccc(Br)cc32)cc1OC` (centres undefined) the figure was inactive: -17%; with `COc1cccc(-n2c(=O)c3c4c(sc3n(Cc3ccccc3C#N)c2=O)CCCC4)c1`, inactive: -0.855%; with `Cc1ccccc1-c1noc(-c2ccc(NC3CCCC3)c([N+](=O)[O-])c2)n1`, inactive: -7.81%. As to `O=C(Cn1nc2c(cc1=O)CCCC2)NCc1ccccc1`, the activation is inactive: -4.88%. Regarding `COc1ccc(-n2nc(C(=O)N3CCN(c4cccc(C)c4)C(C)C3)c3c4ccccc4n(C)c3c2=O)cc1Cl` (centres undefined), the activation was inactive: 2.34%. Take `O=S(=O)(c1ccc2nc(Nc3ccc(Br)cc3F)ccc2c1)N1CCCC1`: the activation is inactive: -12.4%. With `CCOC(=O)c1cnc2ccc(OC(F)(F)F)cc2c1Nc1ccccc1C(=O)O`, the activation was inactive: -5.97%. As to `CCC1Oc2ccc(C)cc2N(CC(=O)NCCc2ccccc2)C1=O` (centres undefined), the activation is inactive: -18.4%. In the case of `COc1cccc(/C=C/c2nc(C#N)c(N3CCCCCC3)o2)c1` it was inactive: -6.24%.
